# Laboratory results reported in PubChem BioAssay AID1468 (National Center for Advancing Translational Sciences (NCATS), 2008).
# “And” between values parts separate entries of the source, which are not always exact repeats. Equal entries are not always repeated. Screen size: about 280,000 compounds; about 1,100 (0.39%) were called active. Inconclusive means that the source gave no clear call. Such entries were picked first, then a sample of the others. Calls follow the shape of the dose curve; as a rule, active = well fitted inhibition curve with a large enough effect; inconclusive = small, poorly fitted or top-dose-only effect, or effect the other way; inactive = flat fitted curve, though single readings scatter. A potency beside an inconclusive call is a rough fit, not a confirmed value.
# Biological target: Microtubule-associated protein tau (Homo sapiens) (UniProt P10636)
# Test: qHTS for Inhibitors of Tau Fibril Formation, Fluorescence Polarization; also: nearly all actives have a fitted effect of over 55% in size
# Conditions: K18 P301L tau heparin fibrillization, Alexa594 FP, 6 h; series mostly up to 57.7 µM; activity, negative = inhibition: at the top concentration
# In short: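 Human K18 P301L fragment (15 uM unlabeled plus 0.24 uM Alexa 594-labeled) in 100 mM sodium acetate pH 7 with compound, aggregation induced by 20 uM heparin for 6 hr at 37 C. ThT (30 uM) added for 1 hr, then Alexa 594 FP read.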
# % is scaled to controls: 0 for no effect and ±100 for the full control effect; potency is read from the fitted curve at half-maximal effect; tags tell the direction and shape of the fitted curve.
# Sequence of UniProt P10636 (P10636 whole entry, looked up): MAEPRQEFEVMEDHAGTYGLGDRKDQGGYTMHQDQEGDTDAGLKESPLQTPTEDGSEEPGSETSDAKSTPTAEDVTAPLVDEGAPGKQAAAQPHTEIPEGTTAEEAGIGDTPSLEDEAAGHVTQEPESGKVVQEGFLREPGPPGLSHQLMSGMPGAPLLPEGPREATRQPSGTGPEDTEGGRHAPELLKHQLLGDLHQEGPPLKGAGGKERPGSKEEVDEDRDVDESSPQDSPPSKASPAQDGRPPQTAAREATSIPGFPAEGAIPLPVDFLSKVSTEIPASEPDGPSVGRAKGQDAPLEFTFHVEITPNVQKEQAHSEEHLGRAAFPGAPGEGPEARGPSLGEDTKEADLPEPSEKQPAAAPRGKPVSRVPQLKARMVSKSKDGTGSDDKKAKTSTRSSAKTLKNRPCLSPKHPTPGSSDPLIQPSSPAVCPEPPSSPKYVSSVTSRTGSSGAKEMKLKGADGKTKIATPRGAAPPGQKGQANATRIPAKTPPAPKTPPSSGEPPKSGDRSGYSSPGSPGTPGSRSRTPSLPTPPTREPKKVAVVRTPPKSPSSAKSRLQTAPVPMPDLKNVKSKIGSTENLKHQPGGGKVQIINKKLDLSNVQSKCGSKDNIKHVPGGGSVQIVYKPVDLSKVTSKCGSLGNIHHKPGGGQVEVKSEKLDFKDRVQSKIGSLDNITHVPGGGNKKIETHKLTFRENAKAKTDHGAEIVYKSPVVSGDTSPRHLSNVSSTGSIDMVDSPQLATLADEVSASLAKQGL
SMILES,Potency,"activity, negative = inhibition"
O=C(C[n+]1ccc(CCSc2ccc(F)cc2)cc1)c1ccccc1,"inconclusive: 14.1 µM [inhibitor, partial curve]",
Cc1ccc(C(=O)Nc2nc(=O)n(C(=O)c3ccccc3Cl)s2)cc1,"inconclusive: 20 µM [inhibitor, partial curve]",
Cc1ccc(NC(=O)CSC2=C(C#N)C(c3ccc4c(c3)OCO4)C3=C(CCCC3=O)N2)c(C)c1 (centres undefined),,inactive: -4.59%
Cc1cccc(C(=O)NNC(=O)/C=C/C(=O)O)c1,"inconclusive: 39.8 µM [inhibitor, single point]",
CC(=O)NC(=S)Nc1ccccc1F,,inactive: -4.59%
CN1C2C=C3C(C#N)=C(N)C(C#N)(C#N)[C@@H](c4ccc(Cl)cc4)[C@@H]3C1CC2 (some centres undefined),"inconclusive: 22.4 µM [inhibitor, single point]",
O=C(N/N=C\c1ccccn1)c1ccccc1O,,inactive: 7.02%
N=C1C(c2nc(-c3ccc(Cl)cc3)cs2)=C(O)CN1CCCN1CCOCC1,"inconclusive: 20 µM [activator, partial curve]",
CCOC(=O)CC(NC(=O)c1cc2cccc(OC)c2oc1=O)c1cccc([N+](=O)[O-])c1 (centres undefined),,inactive: 2.43%
CN(C)c1ccc(-c2ccc3ncnc(NCc4ccccc4)c3c2)cc1,"inconclusive: 2.51 µM [activator, partial curve, poor fit]",
COc1ccc(NC(=S)Nc2ccc(S(N)(=O)=O)cc2)c(OC)c1,"inconclusive: 0.0398 µM [activator, full curve, poor fit]",
O=C(NC(=S)Nc1cccc(Cl)c1N1CCCCC1)c1ccc2c(c1)OCCO2,"inconclusive: 39.8 µM [inhibitor, single point]",
COc1ccc(CC(=O)Nc2ccc3nc(Nc4cccc(Cl)c4)cc(C)c3c2)cc1,"inconclusive: 39.8 µM [inhibitor, single point]",
Cc1ccc(Nc2c(-c3ccc(N4CCOCC4)cc3)nc3c(C)cccn23)cc1,,inactive: 9.47%
O=C(N/N=C/c1sc(N2CCOCC2)nc1-c1ccccc1)c1ccccc1O,"inconclusive: 8.91 µM [activator, full curve, poor fit]",
Cc1ccc2nc(NC(=O)c3ccc(S(=O)(=O)N4CCCc5ccccc54)cc3)sc2c1,"inconclusive: 39.8 µM [inhibitor, single point] and inconclusive: 10 µM [inhibitor, partial curve]",
Brc1ccc(CSc2ccc3nnc(-c4cccnc4)n3n2)cc1,"inconclusive: 44.7 µM [activator, single point]",
C/C(=N\Nc1ccc(S(N)(=O)=O)cc1[N+](=O)[O-])c1ccc2c(c1)OCO2,,inactive: -0.943%
CCN1CCOC(=O)C1CC(=O)Nc1ccc(C)c(Cl)c1 (centres undefined),,inactive: 0.732%
CC(=O)Nc1ccc(-c2cc(-c3ccc(NC(C)=O)cc3)nc(-c3ccccc3)n2)cc1,active: 14.1 µM,
O=C(CN1C(=O)CCc2cc(Br)ccc21)Nc1ccc(OC(F)(F)F)cc1,"inconclusive: 39.8 µM [inhibitor, single point]",
CCOC(=O)c1ccc(Nc2c(-c3ccc(N(C)C)cc3)nc3nc[nH]n23)cc1,"inconclusive: 39.8 µM [inhibitor, single point]",
COc1ccccc1NC(=O)CSc1nnc2c(n1)[nH]c1ccccc12,"inconclusive: 39.8 µM [inhibitor, single point]",

SMILES,Potency,"activity, negative = inhibition"
COCCCNc1oc(-c2ccccc2Cl)nc1C#N,"inconclusive: 0.251 µM [activator, partial curve, poor fit]",
NC(=O)c1c(/N=C/c2cccnc2)sc2c1CCCC2,"inconclusive: 39.8 µM [inhibitor, single point]",
Cc1c(CN2CCCCC2)c(O)n(CCO)c(=O)c1C#N,"inconclusive: 28.2 µM [inhibitor, partial curve]",
CNc1ccc(Br)cc(C(=O)/C=C/c2cccc(Cl)c2Cl)c1=O,"inconclusive: 12.6 µM [inhibitor, partial curve]",
Cc1onc(-c2ccccc2)c1C(=O)NCc1ccco1,,inactive: 2.89%
Cc1ccc2nc(C)c(C)nc2c1N,"inconclusive: 20 µM [inhibitor, single point]",
O=C(/C=C/c1ccco1)NCc1ccco1,"inconclusive: 39.8 µM [inhibitor, single point]",
COc1ccccc1N1CCN(S(=O)(=O)c2cc(C(=O)Nc3ccc(Oc4ccccc4)cc3)ccc2F)CC1,"inconclusive: 8.91 µM [inhibitor, partial curve]",
Nc1ccccc1SCc1c(Cl)cccc1Cl,,inactive: -5.84%
OCCNCCOc1ccccc1-c1ccccc1,,inactive: 2.11%
Cc1cc([N+](=O)[O-])ccc1N=Nc1c(N)[nH]n(-c2ccccc2)c1=O,"inconclusive: 31.6 µM [inhibitor, single point]",
C=CCNC(=O)CC(=O)N/N=C/c1cccs1,,inactive: 3.31%
CC1=C/C(=C/N(C)C)C(=O)O1,"inconclusive: 39.8 µM [inhibitor, single point]",
O=S(=O)(Nc1ncccn1)c1ccc(NC(=S)NCc2cccnc2)cc1,,inactive: 2.98%
CCc1ccc2occ(CC(=O)Nc3c(C(=O)c4ccccc4)oc4ccccc34)c2c1,"inconclusive: 7.94 µM [inhibitor, partial curve]",
CCOC(=O)c1c(-c2ccccc2)oc2ccc(NS(=O)(=O)c3ccc(C)cc3)cc12,"inconclusive: 3.16 µM [inhibitor, full curve]",
NCc1ccc(S(N)(=O)=O)cc1,"inconclusive: 39.8 µM [inhibitor, single point]",
O=C1Nc2ccccc2N=C(c2ccccc2)C1Br (centres undefined),"inconclusive: 5.01 µM [inhibitor, partial curve]",
COCCNc1ccnc(-c2c(C)noc2C)n1,,inactive: -4.51%
O=C(Sc1ccc(Cl)cc1)c1cccc(Cn2cc(C(F)(F)F)ccc2=O)c1,"inconclusive: 31.6 µM [activator, single point]",
COc1ccc(-c2noc(-c3nnn(-c4ccc(C)cc4C)c3C)n2)cc1,,inactive: -9.46%
O=C(C1CC(=O)N(C2CCCC2)C1)N1CCN(c2ccccc2F)CC1 (centres undefined),,inactive: -2.43%
COc1ccc(Cl)c2sc(NC(=O)c3ccc(S(=O)(=O)N4CCCC4)cc3)nc12,"inconclusive: 3.55 µM [inhibitor, partial curve, poor fit]",

SMILES,Potency,"activity, negative = inhibition"
O=C1Nc2ccccc2C(=O)C1(Cl)Cc1ccccc1 (centres undefined),"inconclusive: 28.2 µM [inhibitor, single point]",
O=C(C1CC=CCC1)N1CCC(CO)(Cc2ccc(Cl)cc2)CC1 (centres undefined),,inactive: -5.41%
COc1ccc(NC(=O)Cn2c(=O)c3cccn3c3ccccc32)cc1,active: 17.8 µM,
CN1C(=O)CC(Nc2cccc3cccc(N)c23)C1=O (centres undefined),"inconclusive: 5.01 µM [inhibitor, full curve, poor fit]",
COc1ccc(NC(=O)c2cccc3c(=O)c4c([nH]c23)CCCC4)cc1,,inactive: -4.03%
COc1ccc(OC)c(C2CC(=O)N3CN(c4cccc(Cl)c4)CSC3=C2C#N)c1 (centres undefined),"inconclusive: 31.6 µM [inhibitor, single point]",
CC1SC(=NC(=O)C(C)N2C(=O)c3ccccc3C2=O)NC1=O (centres undefined),"inconclusive: 17.8 µM [inhibitor, single point]",
COc1ccc(C(=O)Nc2nc(-c3ccc(Br)cc3)ns2)cc1,"inconclusive: 25.1 µM [inhibitor, single point]",
COc1ccc(-c2[nH]c(-c3ccc(C)cc3)nc2SCC(=O)Nc2nccs2)cc1,"inconclusive: 3.55 µM [activator, full curve]",
Cc1cccc(C(=O)N2CCc3cc(CNC(=O)c4ccco4)ccc32)c1,,inactive: -7.59%
O=C(Nc1cccnc1)c1ccc(S(=O)(=O)c2ccc(Cl)cc2)cc1,"inconclusive: 39.8 µM [inhibitor, single point]",
CNS(=O)(=O)c1cccc(C(=O)Nc2cccnc2)c1,"inconclusive: 3.16 µM [inhibitor, single point]",
CC(/C=C/c1ccccc1)=N/NC(=O)CCC(=O)Nc1ccccc1C,"inconclusive: 20 µM [inhibitor, partial curve, poor fit]",
COc1ccc(CC(=O)N2CCc3c([nH]c4ccccc34)C2c2ccc(SC)cc2)cc1 (centres undefined),"inconclusive: 0.0562 µM [inhibitor, full curve, poor fit]",
O=C(Nc1ccc2oc(-c3cccnc3)nc2c1)c1ccccc1F,"inconclusive: 39.8 µM [inhibitor, single point]",
CN(C)C1=C(Cl)C(=O)N(c2ccc(Cl)c(Cl)c2)C1=O,"inconclusive: 10 µM [inhibitor, partial curve]",
COc1ccc(NC(=O)c2ccc(CNS(=O)(=O)c3cccc(OC)c3)cc2)cc1,"inconclusive: 17.8 µM [inhibitor, partial curve, poor fit]",
CC(=O)c1ccc(N2Cc3ccccc3/C2=N\C(=O)Nc2ccc(Cl)cc2)cc1,"inconclusive: 31.6 µM [inhibitor, single point]",
c1ccc(-c2n[nH]c3c2oc2ccccc23)cc1,"inconclusive: 28.2 µM [inhibitor, partial curve, poor fit]",
CCOC(=O)c1cccc(NC(=S)NCc2ccc(C)cc2)c1,"inconclusive: 31.6 µM [inhibitor, partial curve]",
COc1ccc(NC(=O)C(NC(=O)/C=C\c2ccc3c(c2)OCO3)c2ccc(C)cc2)cc1 (centres undefined),"inconclusive: 14.1 µM [inhibitor, partial curve]",
CCCCOc1ccc(-c2c(C#N)c(N)nc(SCC(N)=O)c2C#N)cc1,active: 22.4 µM,
Cc1cccc(C)c1NC(=O)c1c(C)nn(-c2ccccc2)c1Cl,"inconclusive: 3.55 µM [inhibitor, single point]",
